# Data from patent US20050064485A1, “Multiplex binding and activity assays” (priority 2003, published 2005).
# Test system: anti-pSer133 antibody labeled with CS124-DTPA-Phe-NCS*Tb
substance,measurement,value
LRREILSRRP(pS)YRK-Fluorescein [SEQ ID NO:7],change in TR-RET value between free and bound forms,32 fold
